# Measurements: patent US6500842B1, “8-hydroxy-7-substituted quinolines as anti-viral agents” (Pharmacia & Upjohn Company, priority 1996, dated 2002)
# Values joined by “and” are separate entries in the source; they are usually repeats but may differ in a detail not shown here. Equal values may be shown once. At least one read-out could not be matched to a standard name with certainty.
# Experiments:
# [1] = target: T1, HCMV polymerase (Human cytomegalovirus, UniProt P08546); assay: HCMV polymerase assay (scintillation proximity assay); type: biochemical; settings: Table 10, pol type CMV
# T1 construct: made in house; host or cells: recombinant baculovirus-infected SF-9 cells
# T1 sequence (P08546 whole entry): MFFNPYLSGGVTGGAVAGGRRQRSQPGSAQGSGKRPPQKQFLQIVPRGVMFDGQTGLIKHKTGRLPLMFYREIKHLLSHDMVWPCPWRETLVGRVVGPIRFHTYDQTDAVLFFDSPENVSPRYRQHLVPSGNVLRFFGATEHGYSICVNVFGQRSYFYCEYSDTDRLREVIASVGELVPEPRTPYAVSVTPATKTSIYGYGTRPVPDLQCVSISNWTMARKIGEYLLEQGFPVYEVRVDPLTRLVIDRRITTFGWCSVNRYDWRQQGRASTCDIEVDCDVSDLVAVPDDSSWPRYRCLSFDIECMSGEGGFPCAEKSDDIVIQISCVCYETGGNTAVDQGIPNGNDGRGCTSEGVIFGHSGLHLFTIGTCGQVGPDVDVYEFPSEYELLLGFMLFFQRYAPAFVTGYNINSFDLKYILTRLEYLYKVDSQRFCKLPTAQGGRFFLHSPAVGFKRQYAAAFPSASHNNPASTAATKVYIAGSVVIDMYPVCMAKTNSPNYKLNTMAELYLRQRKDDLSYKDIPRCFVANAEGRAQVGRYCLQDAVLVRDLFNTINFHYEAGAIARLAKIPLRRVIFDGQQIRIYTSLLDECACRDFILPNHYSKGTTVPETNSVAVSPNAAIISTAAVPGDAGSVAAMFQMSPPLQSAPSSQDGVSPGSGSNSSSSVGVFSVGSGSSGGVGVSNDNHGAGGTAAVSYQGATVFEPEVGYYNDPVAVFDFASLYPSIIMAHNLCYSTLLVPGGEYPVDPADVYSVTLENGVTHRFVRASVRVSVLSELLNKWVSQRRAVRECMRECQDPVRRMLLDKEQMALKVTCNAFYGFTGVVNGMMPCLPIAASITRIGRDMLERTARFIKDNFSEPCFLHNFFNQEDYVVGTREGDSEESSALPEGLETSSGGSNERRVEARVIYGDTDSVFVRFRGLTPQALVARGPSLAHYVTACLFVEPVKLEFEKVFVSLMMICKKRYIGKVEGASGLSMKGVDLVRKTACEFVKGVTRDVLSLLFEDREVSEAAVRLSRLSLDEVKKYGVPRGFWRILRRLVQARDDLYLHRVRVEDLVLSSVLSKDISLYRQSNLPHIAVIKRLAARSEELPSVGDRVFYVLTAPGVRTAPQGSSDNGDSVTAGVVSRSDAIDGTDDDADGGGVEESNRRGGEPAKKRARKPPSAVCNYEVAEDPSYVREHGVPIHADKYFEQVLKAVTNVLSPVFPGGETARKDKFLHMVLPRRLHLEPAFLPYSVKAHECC
# Description: The HCMV polymerase assay is performed using a scintillation proximity assay (SPA) as described in several references, such as N. D. Cook, et al., Pharmaceutical Manufacturing International, pages 49-53 (1992); K. Takeuchi, Laboratory Practice, September issue (1992); U.S. Pat. No. 4,568,649 (1986); which are incorporated by reference herein. Reactions are performed in 96-well plates. The assay is conducted in 100 μl volume with 5.4 mM HEPES (pH 7.5), 11.7 mM KCl, 4.5 mM MgCl2, 0.36 mg/ml BSA, and 90 nM ^3H-dTTP. Assays are run with and without CHAPS, (3-[(3-Cholamidopropyl)-dimethylammonio]-1-propane-sulfonate) at a final concentration of 2 mM. HCMV is diluted in enzyme dilution buffer containing 50% glycerol, 250 mM NaCl, 10 mM HEPES (pH 7.5), 100 pg/ml BSA, and 0.01% sodium azide. The HCMV polymerase, which is expressed in recombinant baculovirus-infected SF-9 cells and purified according to literature procedures, is added at 10% (or 10 μl) of the final reaction volume, i.e., 100 μl. Compounds are diluted in 50% DMSO and 10 μl are added to each well. Control wells contain an equivalent concentration of DMSO. Unless noted otherwise, reactions are initiated via the addition of 6 nM biotinylated poly(dA)-oligo(dT) template/primer to reaction mixtures containing the enzyme, substrate, and compounds of interest. Plates are incubated in a 25° C. of 37° C. H2O bath and terminated via the addition of 40 μl/reaction of 0.5 M EDTA (pH 8) per well. Reactions are terminated within the time-frame during which substrate incorporation is linear and varied depending upon the enzyme and conditions used, i.e., 30 min. for HCMV polymerase. Ten μl of streptavidin-SPA beads (20 mg/ml in PBS/10% glycerol) are added following termination of the reaction. Plates are incubated 10 min. at 37° C., then equilibrated to room temperature, and counted on a Packard Topcount. Linear regressions are performed and IC50's are calculated using computer software. Results of the testing of compounds of the present invention in this assay are shown in Tables 1, 2, 5, 9, 10, 11, 13 (except for the last compound which was tested under modified conditions) and 14 below.
# [2] = tested on: HCMV; assay: CMV antiviral assay, cell culture based ELISA in human foreskin fibroblast cells; design: species or system human cytomegalovirus (HCMV)
# Description: Compounds are tested for direct antiviral activity against HCMV using a cell culture based assay. An ELISA (enzyme linked immunosorbant assay) format is used as described in W. A. Tatarowicz, N. S. Lurain and K. D. Thompson, J. Virol. Meth., 35:207-215 (1991). Human foreskin fibroblast cells are infected with HCMV at a multiplicity of 0.025 plaque forming units per microtiter plate well for a period of 90 minutes. The virus inocula is removed and a suspension of test compound prepared in tissue culture media is added for a period of 4 days. The growth media is aspirated and replaced with 95% ethanol to allow fixation of virus infected cultures. The ethanol is removed and the wells are washed twice with saline. A solution of 2% dry fat milk, 1% bovine sera albumin prepared in saline is added to wells to allow for non-specific binding of protein material to plastic surfaces for 1 hr. Murine monoclonal antibody prepared in saline directed against the late (65 KD) matrix protein of HCMV is added to test wells for 1 hr. The wells are washed twice and antibody, conjugated with the enzyme horse radish peroxidase, with specificity against murine IgG is added to test wells for 1 hr. Test wells are washed three times with saline. A solution of o-phenylene diamine, a substrate for horse radish peroxidase is added for 15 minutes at which time enzymatic conversion occurs indicating reactivity of the enzyme with its substrate. This conversion is evident as a color reaction which was spectrophoretically monitored at 490 nm. The intensity of the color indirectly reflects the presence of antibody directed against the viral 65 KD matrix antigen. The presence of the viral matrix antigen refects the amount of HCMV replication. Thus, test wells, in which little viral replication has occurred, would have little or no antibody binding and are present with low levels of color. Non-infected wells serve as the assay background control.
smiles,measurement,setting,value
Cl.O=C(Nc1ccc2c(C(F)(F)F)cc(=O)oc2c1)c1ccc2cccnc2c1O,% Inhib,[1]; Conc 1.00e-004 M,86.2%
same,% Inhib,[1]; Conc 1.30e-005 M,55.4%
same,% Inhib,[1]; Conc 2.50e-005 M,63.4%
same,% Inhib,[1]; Conc 3.13e-006 M,26.8%
same,% Inhib,[1]; Conc 5.00e-005 M,76.3%
same,% Inhib,[1]; Conc 6.25e-006 M,44.1%
O=C(Nc1cc([N+](=O)[O-])cc([N+](=O)[O-])c1)c1ccc2cccnc2c1O,% Inhib,[1]; Conc 1.30e-005 M,70.5%
same,% Inhib,[1]; Conc 1.56e-006 M,2.8%
same,% Inhib,[1]; Conc 2.50e-005 M,79.2% and 81.1%
same,% Inhib,[1]; Conc 3.13e-006 M,31.7%
same,% Inhib,[1]; Conc 5.00e-005 M,89.7%
same,% Inhib,[1]; Conc 6.25e-006 M,49.6%
N#CCNC(=O)c1ccc2cccnc2c1O [drawing 130],CMV Antiviral Assay % Inh - AV,"[2]; Conc 2.00e+001 uM, Table 7",90.0%
same,CMV Antiviral Assay % Inh - AV,"[2]; Conc 4.00e+000 uM, Table 7",41.0%
same,CMV Antiviral Assay % Inh - AV,"[2]; Conc 8.00e−001 uM, Table 7",34.0%
Cc1ccc2c(Cl)cc(C(=O)NCc3ccc(Cl)cc3)c(O)c2n1 [drawing 131],CMV Antiviral Assay % Inh - AV,"[2]; Conc 1.00e+001 uM, Table 7",50.0%
same,CMV Antiviral Assay % Inh - AV,"[2]; Conc 2.00e+001 uM, Table 7",96.0% and 54.0%
same,CMV Antiviral Assay % Inh - AV,"[2]; Conc 3.00e+001 uM, Table 7",52.0%
same,CMV Antiviral Assay % Inh - AV,"[2]; Conc 4.00e+000 uM, Table 7",12.0% and 8.0%
same,CMV Antiviral Assay % Inh - AV,"[2]; Conc 4.00e+001 uM, Table 7",99.0% and 66.0%
same,CMV Antiviral Assay % Inh - AV,"[2]; Conc 8.00e+000 uM, Table 7",35.0%
same,CMV Antiviral Assay % Inh - AV,"[2]; Conc 8.00e+001 uM, Table 7",21.0%
O=C(Nc1nc2ccc(Cl)cc2s1)c1ccc2cccnc2c1O [drawing 325],CMV Antiviral Assay % Inh - AV,"[2]; Conc 2.00e+001 uM, Table 12",50.0%
same,CMV Antiviral Assay % Inh - AV,"[2]; Conc 4.00e+000 uM, Table 12",34.0%
same,CMV Antiviral Assay % Inh - AV,"[2]; Conc 4.00e+001 uM, Table 12",33.0%
same,CMV Antiviral Assay % Inh - AV,"[2]; Conc 8.00e−001 uM, Table 12",28.0%
Cc1ccc2c(Cl)cc(S(=O)(=O)NCCCN3CCOCC3)c(O)c2n1 [drawing 326],CMV Antiviral Assay % Inh - AV,"[2]; Conc 1.00e+000 uM, Table 12",20.0%
same,CMV Antiviral Assay % Inh - AV,"[2]; Conc 2.00e+001 uM, Table 12",74.0% and 78.0%
same,CMV Antiviral Assay % Inh - AV,"[2]; Conc 4.00e+000 uM, Table 12",66.0% and 62.0%
same,CMV Antiviral Assay % Inh - AV,"[2]; Conc 4.00e+001 uM, Table 12",90.0%
same,CMV Antiviral Assay % Inh - AV,"[2]; Conc 8.00e+000 uM, Table 12",12.0%
same,CMV Antiviral Assay % Inh - AV,"[2]; Conc 8.00e−001 uM, Table 12",29.0%
Cc1ccc2c(Cl)cc(S(=O)(=O)NCc3ccccn3)c(O)c2n1 [drawing 327],CMV Antiviral Assay % Inh - AV,"[2]; Conc 1.50e+001 uM, Table 12",60.0%
same,CMV Antiviral Assay % Inh - AV,"[2]; Conc 2.00e+001 uM, Table 12",69.0% and 78.0%
same,CMV Antiviral Assay % Inh - AV,"[2]; Conc 4.00e+000 uM, Table 12",1.0%
same,CMV Antiviral Assay % Inh - AV,"[2]; Conc 4.00e+001 uM, Table 12",94.0%
same,CMV Antiviral Assay % Inh - AV,"[2]; Conc 5.00e+000 uM, Table 12",36.0%
same,CMV Antiviral Assay % Inh - AV,"[2]; Conc 8.00e−001 uM, Table 12",4.0%
Cc1ccc2c(Cl)cc(S(=O)(=O)NCCCCc3ccccc3)c(O)c2n1 [drawing 328],CMV Antiviral Assay % Inh - AV,"[2]; Conc 1.00e+001 uM, Table 12",97.0%
same,CMV Antiviral Assay % Inh - AV,"[2]; Conc 2.00e+001 uM, Table 12",93.0%
same,CMV Antiviral Assay % Inh - AV,"[2]; Conc 4.00e+000 uM, Table 12",54.0%
same,CMV Antiviral Assay % Inh - AV,"[2]; Conc 8.00e−001 uM, Table 12",0.0%
Cc1ccc2c(Cl)cc(S(=O)(=O)NCCc3ccccn3)c(O)c2n1 [drawing 329],CMV Antiviral Assay % Inh - AV,"[2]; Conc 1.00e+001 uM, Table 12",26.0%
same,CMV Antiviral Assay % Inh - AV,"[2]; Conc 2.00e+001 uM, Table 12",79.0%
same,CMV Antiviral Assay % Inh - AV,"[2]; Conc 4.00e+000 uM, Table 12",17.0%
same,CMV Antiviral Assay % Inh - AV,"[2]; Conc 8.00e−001 uM, Table 12",35.0%
